Assay results reported in US6291640A, “Peptidomimetic inhibitors of the human cytomegalovirus protease” (Boehringer Ingelheim Ltd., priority 1998, dated 2001).
For some of these results: At least one structure is not confirmed: it was looked up by name or label, or the drawing left a doubt. Some results were stated once for a whole list of compounds, not compound by compound. Starred links: 1 amine or outer side, 2 acyl side, 3 side chain; linkers in the order of their positions; H or OH if unused. Non-standard residues stand in square brackets, D forms with d. Residues, ends and D or L forms follow the SMILES beside them. ξ: configuration not given here. *: point of attachment. ξ3Amino2oxobutanoyl = CC(N[*:1])C(=O)C(=O)[*:2]; Boc = CC(C)(C)OC(=O)*; OBn = c1ccc(CO*)cc1

Assays:
Format in all cases: biochemical
[1] = molecular target: T1, bovine pancreatic α-chymotrypsin (BPC) (Bos taurus, UniProt P00766, DEL14-15/DEL147-148); experiment: Specificity assay, bovine pancreatic α-chymotrypsin; details: data not shown
T1 construct: Bovine pancreas α-chymotrypsin #103314 lot 13724423-58; purchased Boehringer Mannheim #103314

[2] = molecular target: T2, human leukocyte elastase (HLE) (Homo sapiens, UniProt P08246); experiment: Specificity assay, human leukocyte elastase; details: data not shown
T2 construct: Human neutrophil elastase #324681 lot B12778; purchased Calbiochem #324681
T2 sequence (P08246 30-267): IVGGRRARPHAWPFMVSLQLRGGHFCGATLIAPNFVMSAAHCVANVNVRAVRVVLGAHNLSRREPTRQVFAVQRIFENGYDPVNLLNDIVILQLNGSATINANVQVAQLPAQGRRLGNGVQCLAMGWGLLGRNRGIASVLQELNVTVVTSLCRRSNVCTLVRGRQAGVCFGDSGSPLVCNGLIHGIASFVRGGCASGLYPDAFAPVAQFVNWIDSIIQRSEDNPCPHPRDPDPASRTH

[3] = molecular target: T3, human liver cathepsin B (cat-B) (Homo sapiens, UniProt P07858); experiment: Specificity assay, human liver cathepsin B; details: data not shown
T3 construct: Human liver cathepsin B #219364 lot B14649; purchased Calbiochem #219364

HCMV No protease = molecular target: T4, HCMV No protease (Human cytomegalovirus, UniProt P16753); details: inhibitor pre-incubated 5 hr at 30° C. with enzyme, fluorogenic substrate
T4 construct: at a position located near the center of the precursor (R-site) to excise the catalytic domain (No)
T4 sequence (P16753 1-256): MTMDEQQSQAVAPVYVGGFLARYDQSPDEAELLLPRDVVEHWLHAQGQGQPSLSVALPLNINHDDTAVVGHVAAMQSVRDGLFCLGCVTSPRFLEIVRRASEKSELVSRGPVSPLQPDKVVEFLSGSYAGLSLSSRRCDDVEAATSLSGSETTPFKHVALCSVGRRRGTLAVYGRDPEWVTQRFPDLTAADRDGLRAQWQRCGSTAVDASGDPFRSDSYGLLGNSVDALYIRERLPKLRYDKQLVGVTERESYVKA
Experimental: HCMV No protease assay: HCMV No protease was assayed with an internally quenched fluorogenic substrate based on the maturation cleavage site (Abz-[…](3-NO2)R-OH, kcat /KM =260 M^-1 s^-1) . […] A protocol adaptable to a 96-well plate format was designed for the determination of IC50 values of inhibitors. […] After this period, enzymatic hydrolysis was initiated by addition of the fluorogenic substrate and the reaction was performed for 2 hr at 30° C. […] No quenching was required before fluorescence measurement since the total scanning time by the plate reader accessory was brief relative to the duration of the reaction. The incubation buffer (essentially similar to the pre-incubation buffer) contained 50 mM Tris/HCl pH 8, 0.5M Na2 SO4, 50 mM NaCl, 0.1 mM EDTA, 1 mM TCEP, 3% v/v DMSO and 0.05% w/v Casein. The final concentrations of HCMV N, protease (expressed in terms of total monomer concentration) and substrate were 100 nM and 5 μM respectively. IC50 values were obtained through fitting of the inhibition curve to a competitive inhibition model using SAS NLIN procedure. The mode of inhibition was determined by measurements of the initial rates (in cuvettes) at various substrate (Abz-Tbg-Tbg-Asn(Me)2 -Ala-SSRLY(3-NO2)R-OH) and inhibitor concentrations using the same conditions as above.

Row | SMILES | specificity profile against BPC [1] | specificity profile against HLE [2] | specificity profile against cat-B [3] | IC50 (HCMV No protease) [nM]
1 | CC(NC(=O)[C@H](CC(=O)N(C)C)NC(=O)[C@@H](NC(=O)CC(C)(C)C)C(C)(C)C)C(=O)c1nc2ccccc2o1 (stereo partly drawn) [Compound 77, N1-[2-(1,3-benzoxazol-2-yl)-1-methyl-2-oxoethyl]-N4,N4-dimethyl-(2S)-2-{[(1S)-2,2-dimethyl-1-(neopentylcarboxamido)propyl]carboxamido}butanediamide] | good specificity profiles | good specificity profiles | – | –
2 | CC(NC(=O)[C@H](CC(=O)N(C)C)NC(=O)[C@@H](NC(=O)CC(C)(C)C)C(C)(C)C)P(=O)(Oc1ccccc1)Oc1ccccc1 (stereo partly drawn) [Compound 79, Diphenyl N4 ,N4-dimethyl-N1-(1-aminoethylphosphinate)-(2S)-2-{[(1S)-2,2-dirmethyl-1-(neopentylcarboxamido)propyl]carboxamido}butanediamide] | good specificity profiles | good specificity profiles | good specificity profiles | –
3 | CC[C@@H](NC(=O)C(=O)CNC(=O)[C@H](CC(=O)N(C)C)NC(=O)[C@@H](NC(=O)[C@@H](N)C(C)(C)C)C(C)(C)C)c1ccccc1 [Compound 94] | – | – | – | 550
4 | CC[C@@H](NC(=O)C(=O)CNC(=O)[C@H](CC(=O)N(C)C)NC(=O)[C@@H](NC(=O)[C@@H](NC(=O)OC(C)(C)C)C(C)(C)C)C(C)(C)C)c1ccccc1 [Compound 95] | – | – | – | 62
5 | CC(NC(=O)[C@H](CC(=O)N(C)C(C)(C)C)NC(=O)[C@@H](NC(=O)OC(C)(C)C)C(C)(C)C)C(=O)C(F)(F)C(F)(F)F (stereo partly shown) [Compound 302] | – | – | – | 3000
6 | CC(NC(=O)[C@H](CC(=O)NC(C)(C)C)NC(=O)[C@@H](NC(=O)OC(C)(C)C)C(C)(C)C)C(=O)C(F)(F)C(F)(F)F (stereo partly shown) [Compound 303] | – | – | – | 5600
7 | CC(NC(=O)[C@H](CC(=O)N(C)C)NC(=O)[C@@H](NC(=O)[C@@H](NC(=O)OC(C)(C)C)C(C)C)C(C)C)C(=O)C(=O)N[C@H](C)C(=O)OCc1ccccc1 (stereo partly shown) [Compound 403] (Boc-VVD(NMe2)[ξ3Amino2oxobutanoyl][dA]-OBn) | – | – | – | 1600
